Measurements reported in PubChem BioAssay AID445 (National Center for Advancing Translational Sciences (NCATS), 2006).
Out of some 110,000 compounds screened, about 40 (0.04%) were called active. The shares of active, inactive and inconclusive entries below differ from those in the screen. The call rests on the fitted dose curve; in most records, active means well fitted curve in the direction sought with a large enough effect in the signal ratio (not every such curve was filed as active); inconclusive means small, poorly fitted or top-dose-only effect, or a change in a side signal; inactive means flat fitted curve, though single readings scatter; the % refers to the signal ratio. A potency beside an inconclusive call is a rough fit, not a confirmed value.

assay: IkB Signaling; settings: ABC-DLBCL IkBa-CBG/CBR dual luciferase ratio (green luciferase fused to IkBa over red control in OCI-Ly3 lymphoma cells), 4 h; IkBa stabilization activation: at 57.1 µM (top of the series), scaled: untreated 0%, proteasome inhibitor 100% unless noted;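 on IkBa stabilization activation: 0% = basal untreated cells and 100% = reference inhibitor full response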
Summary of the method: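 In this assay, an IκBα–CBG68 fusion accumulates when IKK-driven degradation is blocked; native CBR normalizes for cell number. OCI-Ly3 cells were treated 4 h with compound and doxycycline, then green and red light read after Chroma-Glo addition.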
Potency means the concentration at half of the fitted maximal effect.

SMILES	IkBa stabilization activation	Potency
CCOC(=O)c1c(C)[nH]c2ccc3c(c12)CN1CCc2cc(OC)ccc2[C@@H]1O3	inconclusive: 0.718% [signal inhibitor]	
Cc1cccc(NC(=O)CCCn2c(C)c3cnn(-c4ccccc4)c(=O)c3c2C)c1C		inconclusive: 1.26 µM [signal inhibitor, partial curve]
CCc1ccc(CNC(=O)c2sc3ncccc3c2-n2c(C)ccc2C)cc1	inconclusive: 6.03% [signal inhibitor]	
Cc1ccc(-c2nc3cc(C(C)C)ccc3o2)cc1NC(=O)c1cc2ccccc2o1	inactive	
Cc1ccc(OCC(=O)Nc2ccc(S(=O)(=O)Nc3cc(C)nc(C)n3)cc2)c(Br)c1	inconclusive: 8.86% [signal inhibitor]	
O=C(NCc1cn2ccsc2n1)Nc1cccc(Cl)c1	inconclusive: 3.5% [signal inhibitor]	
COc1ccc(C2=CC(c3ccc(F)cc3)n3ncc(C(=O)Nc4ccc(C)cc4)c3N2)cc1 (stereo not drawn)	inconclusive: -2.09% [signal inhibitor]	
COc1cccc(NC(=O)CSc2nc3c(oc4ccccc43)c(=O)n2Cc2ccco2)c1	inconclusive: 0.777% [signal inhibitor]	
Cc1cc(C(=O)CN2C(=O)c3ccccc3C2=O)c(C)n1Cc1cccs1	inactive	
CC(C)c1nc(SCC(=O)Nc2cccc(C(F)(F)F)c2)c2c(=O)n(C)c(=O)n(C)c2n1	inactive	
CCOC(=O)C1CCCN(C(=O)C2CCN(c3nnc(C)c4c(C)n(-c5ccccc5)nc34)CC2)C1 (stereo not drawn)	inconclusive: -0.186% [signal inhibitor]	
CC1CN(c2nn3c(=O)c4ccccc4nc3c3ccccc23)CC(C)O1 (stereo not drawn)	inconclusive: -0.183% [signal inhibitor]	
Clc1ccc(-c2noc3ncnc(NCCCN4CCN(c5ccccc5)CC4)c23)cc1	inconclusive: 0.981% [signal inhibitor]	
CCOc1ccccc1NC(=O)C(Cc1ccccc1)NS(=O)(=O)c1ccc(Br)s1 (stereo not drawn)		inconclusive: 25.1 µM [signal inhibitor]
Cc1cc(C)c(/C=C2/C(=O)Nc3ccccc32)[nH]1	inactive	
Cc1ccc(C)c(N2CCN(C(=O)C3CCN(S(=O)(=O)c4cn(C)cn4)CC3)CC2)c1	inconclusive: -0.138% [signal inhibitor]	
COc1ccc(CNS(=O)(=O)c2cc(C(=O)Nc3cc(Cl)cc(Cl)c3)ccc2F)cc1	inconclusive: -5.63% [signal inhibitor]	
CCc1ccc(CNC(=O)C(CC)n2ccc3cc(S(=O)(=O)N4CCCCC4)ccc32)cc1 (stereo not drawn)	inconclusive: -0.28% [signal inhibitor]	
